± gives the standard deviation of the averaged measurements. The full ranking holds about 33,000 sequences; the median of “E-score (dimensionless, -0.5 to 0.5)” is about -0.049, and the highest 2% start at about 0.37. Some of the results follow.
Test system: T1, PmTbr T-box DNA-binding domain (GST fusion)
T1 sequence: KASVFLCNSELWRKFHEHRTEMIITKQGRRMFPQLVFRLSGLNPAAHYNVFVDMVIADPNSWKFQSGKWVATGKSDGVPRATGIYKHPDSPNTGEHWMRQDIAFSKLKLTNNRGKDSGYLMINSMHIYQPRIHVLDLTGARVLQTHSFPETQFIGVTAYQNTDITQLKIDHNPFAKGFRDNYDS
Assay: PBM E-score of 8-mer (E-score (dimensionless, -0.5 to 0.5)); Tbr is Tbrain of the sea star Patiria miniata (Pm) or the sea urchin Strongylocentrotus purpuratus (Sp); higher = stronger binding preference; most listed sequences are background and not binding sites
Conditions: the construct has about 5 more residues each side
Summary of the method: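 Primer extension turned Universal Agilent oligonucleotide arrays double-stranded. They were incubated with 200 nM protein in PBS (pH 7.5); the protein was a GST-fused Tbr T-box DNA-binding domain expressed in BL21 E. coli at 20 °C and purified on glutathione. Every ungapped 8-mer was scored from the scanned, quantified probe intensities, and the Universal PBM Analysis Suite gave each an enrichment E-score averaged over duplicate arrays.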

Row | Sequence | PBM E-score of 8-mer
1 | ACTCTTAG | -0.0903 ± 0.065
2 | GATCTCCA | -0.0926 ± 0.045
3 | GAACCAAC | 0.0193 ± 0.17
4 | ATCCGCCA | -0.129 ± 0.013
5 | GATATCGA | 0.0463 ± 0.052
6 | ACGTTCAT | -0.137 ± 0.018
7 | GACACCCA | 0.388 ± 0.032
8 | GGGCCAGA | -0.346 ± 0.022
9 | AAGAATCT | -0.162 ± 0.052
10 | AAACCGTC | -0.061 ± 0.017
11 | ACGTAAAC | -0.00515 ± 0.00069
12 | TACTTCGA | -0.0351 ± 0.02
13 | AATGCTAT | -0.0672 ± 0.063
14 | GGGCTAGA | -0.158 ± 0.019
15 | ACTCCTCC | 0.0678 ± 0.078
16 | AGGCATGA | -0.257 ± 0.074
17 | TCGAAAAA | 0.0243 ± 0.028
18 | AAGCCTCA | -0.0667 ± 0.04
19 | TCTCCTAA | -0.0987 ± 0.12
20 | AACAGCGC | 0.0979 ± 0.039
21 | GGTTCCAA | -0.241 ± 0.027
22 | ACAACTAG | -0.0136 ± 0.00076
23 | CAAATGCC | -0.0299 ± 0.045
24 | CCGAGCGA | -0.248 ± 0.075
25 | GGGATAAC | 0.0683 ± 0.057

Row | Sequence | PBM E-score of 8-mer
26 | AATAGGCT | -0.164 ± 0.087
27 | AAGACCCG | 0.00743 ± 0.084
28 | CTAATTGC | 0.0265 ± 0.0087
29 | CAGCGCCC | -0.0103 ± 0.094
30 | GTCGGCAA | -0.0341 ± 0.011
31 | CCTGTTGC | 0.143 ± 0.039
32 | GGGTCTCA | 0.05 ± 0.034
33 | AGCTGCAA | 0.0727 ± 0.0037
34 | ACCGACTA | -0.0378 ± 0.056
35 | GACCCCGA | -0.192 ± 0.054
36 | GGGTGGAC | -0.178 ± 0.027
37 | CGATTTGA | 0.0366 ± 0.12
38 | GAACTCCC | -0.13 ± 0.012
39 | ACTTTATC | 0.0678 ± 0.072
40 | GGGCCTCA | -0.165 ± 0.0037
41 | GGAGCTTA | -0.18 ± 0.11
42 | CGGTATAA | -0.0515 ± 0.011
43 | AGGCCTAC | -0.238 ± 0.088
44 | ATATCCTG | -0.361 ± 0.025
45 | CGGTTAAC | 0.0802 ± 0.035
46 | AACAGATT | 0.099 ± 0.11
47 | AAGCCGTG | -0.00484 ± 0.044
48 | CGGGTTTC | -0.071 ± 0.015
49 | CATCGTTA | 0.00456 ± 0.056
50 | GACCTCAC | 0.0743 ± 0.032

Row | Sequence | PBM E-score of 8-mer
51 | CATTGTGG | -0.0877 ± 0.11
52 | ATTCATTA | 0.0337 ± 0.032
53 | TCCCAGCA | 0.0248 ± 0.11
54 | AAAACGCC | 0.0828 ± 0.035
55 | GAGGGCCA | -0.302 ± 0.031
56 | CTGTTGCA | 0.075 ± 0.12
57 | AGACTGGC | -0.0734 ± 0.036
58 | ACCTCTTC | 0.0295 ± 0.076
59 | GCTATCTA | -0.0532 ± 0.092
60 | GGCTTACC | -0.139 ± 0.096
61 | AAAACACT | 0.241 ± 0.029
62 | CTTCACTC | 0.0135 ± 0.0079
63 | CGTTAAGC | 0.0834 ± 0.024
64 | CCAAGTAC | 0.0207 ± 0.054
65 | AGGCCCTC | -0.448 ± 0.0054
66 | AACGAGAT | -0.176 ± 0.028
67 | AGAACGTC | -0.0499 ± 0.094
68 | GATTCTCA | 0.149 ± 0.025
69 | AGGGACGC | -0.185 ± 0.017
70 | ACCTGCGC | 0.0232 ± 0.034
71 | AGGCATCG | -0.197 ± 0.012
72 | AAGCTGTC | 0.276 ± 0.032
73 | GAGTCTGC | -0.138 ± 0.025
74 | GAACGTAA | -0.106 ± 0.074
75 | CCCTAACA | 0.154 ± 0.024

Row | Sequence | PBM E-score of 8-mer
76 | CAGCCTTC | 0.0672 ± 0.013
77 | GTACTGGA | -0.259 ± 0.044
78 | AGTCCCGC | -0.0686 ± 0.011
79 | ACGTTGGA | -0.0523 ± 0.0094
80 | CACCTATA | 0.377 ± 0.018
81 | AGACGTCG | -0.0747 ± 0.046
82 | GACGGTAA | -0.118 ± 0.051
83 | ACAAAGGA | -0.0621 ± 0.014
84 | CTCCAATA | -0.0377 ± 0.038
85 | CAATTAGG | 0.213 ± 0.054
86 | ATCGGCCG | -0.17 ± 0.072
87 | GAAGCGAA | -0.0411 ± 0.045
88 | ACATTCGT | 0.061 ± 0.0019
89 | AGTATCGG | -0.12 ± 0.027
90 | ATGATTAA | -0.0667 ± 0.099
91 | TCACACGA | 0.351 ± 0.02
92 | ACAGACTG | -0.153 ± 0.055
93 | GCCCTGAC | -0.0459 ± 0.073
94 | TACACTGA | -0.0183 ± 0.006
95 | GTAAAGAC | -0.209 ± 0.0068
96 | CCCTCAAA | -0.0698 ± 0.058
97 | CACTGAGC | -0.026 ± 0.018
98 | GTGAGAAC | 0.44 ± 0.0046
99 | ATTAATTC | -0.198 ± 0.076
100 | AGGGATCA | -0.131 ± 0.037

Row | Sequence | PBM E-score of 8-mer
101 | AGCAACCC | 0.0851 ± 0.039
102 | AACGGGGT | -0.136 ± 0.084
103 | AGAAAACA | 0.0444 ± 0.03
104 | CGGAAACC | 0.174 ± 0.0024
105 | ACAAATGC | 0.0343 ± 0.039
106 | AAAGGACA | -0.00333 ± 0.022
107 | GTCATGGA | -0.173 ± 0.027
108 | TAGCCGCA | -0.085 ± 0.025
109 | CAGGACAG | 0.011 ± 0.041
110 | ATCAAATC | -0.244 ± 0.069
111 | GAGGCCAA | -0.197 ± 0.058
112 | AATTGAGA | -0.118 ± 0.086
113 | CCGATTAC | 0.0603 ± 0.097
114 | TACCACTA | -0.0269 ± 0.01
115 | AAGAAACA | 0.0209 ± 0.13
116 | GGGCACCC | -0.156 ± 0.016
117 | ACCAGTAT | -0.087 ± 0.037
118 | AATATCGT | -0.104 ± 0.12
119 | GTAGACCA | -0.2 ± 0.022
120 | CGTTTCAA | -0.022 ± 0.0086
121 | ATTGGATA | -0.22 ± 0.0046
122 | TGCTAACA | 0.369 ± 0.041
123 | ATCTTATG | -0.215 ± 0.0049
124 | ACCTGGCA | 0.288 ± 0.011
125 | AAATTTCA | 0.109 ± 0.086

Row | Sequence | PBM E-score of 8-mer
126 | ACTGGGTA | -0.123 ± 0.03
127 | AGGGCAGG | -0.233 ± 0.013
128 | CGGGAGGA | -0.138 ± 0.059
129 | GATGGCGA | 0.1142 ± 0.00067
130 | AGAATACA | -0.00101 ± 0.021
131 | GAGACCAA | 0.197 ± 0.013
132 | CAATGACA | 0.139 ± 0.02
133 | CTACAGCA | -0.187 ± 0.053
134 | GATCTTCA | -0.0183 ± 0.042
135 | ACTAAAAA | -0.0935 ± 0.077
136 | GCCTTTTA | -0.114 ± 0.025
137 | AATTAAGA | -0.296 ± 0.035
138 | CGTTCTAG | -0.057 ± 0.034
139 | CTAGACAG | -0.0994 ± 0.099
140 | ACTCCCAA | -0.185 ± 0.036
141 | CTCGAAAG | -0.0414 ± 0.0042
142 | ACTAGTAC | -0.0361 ± 0.05
143 | CGATCACA | 0.3532 ± 0.0012
144 | GAGACATA | -0.0845 ± 0.0094
145 | GCATTCAA | -0.148 ± 0.016
146 | CCCTAATA | -0.219 ± 0.027
147 | GCTGTTGA | 0.0473 ± 0.023
148 | GTGTGCAA | 0.329 ± 0.0035
149 | ACGATGAG | -0.0431 ± 0.029
150 | CGGACGCA | -0.0901 ± 0.091

Row | Sequence | PBM E-score of 8-mer
151 | ATATTACG | -0.166 ± 0.025
152 | CCACCCCA | 0.129 ± 0.089
153 | CATAAGTA | -0.00558 ± 0.019
154 | AATGGTAA | -0.0591 ± 0.045
155 | CAAACTGA | 0.012 ± 0.033
156 | CGCCTGAG | 0.0681 ± 0.047
157 | GAAATAAA | 0.0685 ± 0.061
158 | ACACACCT | 0.445 ± 0.0069
159 | CGACCGCG | 0.128 ± 0.061
160 | GCACGGCC | 0.0764 ± 0.06
161 | ATGGGACA | -0.11 ± 0.042
162 | CATTAGAA | -0.14215 ± 0.00011
163 | ACTTACTC | 0.165 ± 0.0043
164 | ACTATGAT | -0.15 ± 0.0073
165 | ACATTAGC | 0.117 ± 0.022
166 | CGCCTCGC | 0.273 ± 0.0056
167 | CGCCCGTA | -0.166 ± 0.022
168 | AATGATCG | -0.0804 ± 0.013
169 | ATTTATAG | -0.213 ± 0.084
170 | ACCACGAG | -0.0449 ± 0.049
171 | AGCTTGTC | 0.0667 ± 0.021
172 | ACTGTATA | -0.117 ± 0.021

From the supplement of paper PMC4166925
